Test results from patent US20080114054A1, “Compositions and methods for reducing antimicrobial resistance of microbes” (priority 2006, published 2008).

Legend:
Salmonella = assay type: cell-based; details: composition listed in Table 1 in presence of the antibiotic; for Colonies showing decreasing inhibition zone / Colonies showing increasing inhibition zones / Colonies with no change in inhibition zone: 30 colonies; for % colonies showing increase in inhibition zone: of 30 tested colonies
S. aureus = assay: Inhibition zone of S. aureus colonies exposed to composition of Table 1 in presence of antibiotic GM; assay type: cell-based; details: composition listed in Table 1 in presence of the antibiotic, 15 colonies
Brucella = assay type: cell-based; details: composition listed in Table 1 in presence of the antibiotic; for Colonies showing decreasing inhibition zone / Colonies showing increasing inhibition zone / Colonies with no change in inhibition zone: 30 colonies; for Percent colonies showing increase in inhibition zone (%): of 30 tested colonies
Yerssinia = assay: Inhibition zone of Yerssinia colonies exposed to composition of Table 1 in presence of antibiotics; assay type: cell-based; details: composition listed in Table 1 in presence of the antibiotic; for Colonies showing decrease in inhibition zone / Colonies showing increase in inhibition zone / Colonies with no change in inhibition zone: 30 colonies; for Percent colonies showing increase in inhibition zone (%): of 30 tested colonies
E. coli = assay: Inhibition zone of E. coli colonies exposed to composition of Table 1 in presence of antibiotics
S. saprophyticus = assay: Inhibition zone of S. saprophyticus colonies exposed to composition of Table 1 in presence of antibiotics; assay type: cell-based; details: composition listed in Table 1 in presence of the antibiotic; for Colonies showing a decrease in inhibition zone / Colonies showing an increase in inhibition zone / Colonies with no change in inhibition zone: 15 colonies; for Percent colonies showing increase in inhibition zone (%): of 15 tested colonies
Listeria = assay: Inhibition zone of Listeria colonies exposed to composition of Table 1 in presence of antibiotics; assay type: cell-based; details: composition listed in Table 1 in presence of the antibiotic; for Colonies showing a decreasing inhibition zone / Colonies showing increasing inhibition zone / Number of colonies with no change in inhibition zone: 30 colonies; for Percent colonies showing increase in inhibition zone (%): of 30 tested colonies
[1] = 1 h, composition listed in Table 1 in presence of the antibiotic, 30 colonies

## Gentamicin [GM]
Salmonella; 1 h
  Colonies showing decreasing inhibition zone: 3
  Colonies showing increasing inhibition zones: 27
  Colonies with no change in inhibition zone: 0
  % colonies showing increase in inhibition zone: 90.0%
Salmonella; 2 h
  Colonies showing decreasing inhibition zone: 2
  Colonies showing increasing inhibition zones: 26
  Colonies with no change in inhibition zone: 2
  % colonies showing increase in inhibition zone: 86.7%
S. aureus; 1 h
  Colonies showing a decrease in inhibition zone: 0
  Colonies showing an increase in inhibition zone: 14
  Number of colonies with no change in inhibition zone: 1
S. aureus; 2 h
  Colonies showing a decrease in inhibition zone: 1
  Colonies showing an increase in inhibition zone: 14
  Number of colonies with no change in inhibition zone: 0
Brucella; 1 h
  Colonies showing decreasing inhibition zone: 4
  Colonies showing increasing inhibition zone: 22
  Colonies with no change in inhibition zone: 4
  Percent colonies showing increase in inhibition zone (%): 73.3%
Brucella; 2 h
  Colonies showing decreasing inhibition zone: 13
  Colonies showing increasing inhibition zone: 14
  Colonies with no change in inhibition zone: 3
  Percent colonies showing increase in inhibition zone (%): 46.7%
Yerssinia; 1 h
  Colonies showing decrease in inhibition zone: 3
  Colonies showing increase in inhibition zone: 24
  Colonies with no change in inhibition zone: 3
  Percent colonies showing increase in inhibition zone (%): 80.0%
Yerssinia; 2 h
  Colonies showing decrease in inhibition zone: 1
  Colonies showing increase in inhibition zone: 27
  Colonies with no change in inhibition zone: 2
  Percent colonies showing increase in inhibition zone (%): 90.0%
E. coli; 1 h
  Percent colonies showing increase in inhibition zone (%): 73.3%
E. coli; [1]
  Number of colonies showing a decrease in inhibition zone: 6
  Number of colonies showing an increase in inhibition zone: 22
  Number of colonies with no change in inhibition zone: 2
E. coli; 2 h, composition listed in Table 1 in presence of the antibiotic, 30 colonies
  Number of colonies showing an increase in inhibition zone: 12
E. coli; 2 h, composition listed in Table 1 in presence of the antibiotic, of 30 tested colonies
  Percent colonies showing increase in inhibition zone (%): 40.0%
S. saprophyticus; 1 h
  Colonies showing a decrease in inhibition zone: 0
  Colonies showing an increase in inhibition zone: 14
  Colonies with no change in inhibition zone: 1
  Percent colonies showing increase in inhibition zone (%): 93.3%
S. saprophyticus; 2 h
  Colonies showing a decrease in inhibition zone: 0
  Colonies showing an increase in inhibition zone: 15
  Colonies with no change in inhibition zone: 0
  Percent colonies showing increase in inhibition zone (%): 100.0%
Listeria; 1 h
  Colonies showing a decreasing inhibition zone: 3
  Colonies showing increasing inhibition zone: 26
  Number of colonies with no change in inhibition zone: 1
  Percent colonies showing increase in inhibition zone (%): 86.7%
Listeria; 2 h
  Colonies showing a decreasing inhibition zone: 2
  Colonies showing increasing inhibition zone: 28
  Number of colonies with no change in inhibition zone: 0
  Percent colonies showing increase in inhibition zone (%): 93.3%

Where two headings read alike, the source gives them in different places.
